Laboratory results taken from US7153977B2, “Ligands and methods for preparing same” (National University of Singapore, priority 2000, dated 2006).

Key:
Assay in all cases: NEM inhibition of equilibrative 3H-uridine transport in SP2/0-Ag14 cells
[1] = target: T1, equilibrative nucleoside transporter (es and ei) in murine myeloma SP2/0-Ag14 cells (Mus musculus, UniProt Q61672); conditions: SP2/0-Ag14 cells; NEM-insensitive component
T1 sequence (Q61672 1-456): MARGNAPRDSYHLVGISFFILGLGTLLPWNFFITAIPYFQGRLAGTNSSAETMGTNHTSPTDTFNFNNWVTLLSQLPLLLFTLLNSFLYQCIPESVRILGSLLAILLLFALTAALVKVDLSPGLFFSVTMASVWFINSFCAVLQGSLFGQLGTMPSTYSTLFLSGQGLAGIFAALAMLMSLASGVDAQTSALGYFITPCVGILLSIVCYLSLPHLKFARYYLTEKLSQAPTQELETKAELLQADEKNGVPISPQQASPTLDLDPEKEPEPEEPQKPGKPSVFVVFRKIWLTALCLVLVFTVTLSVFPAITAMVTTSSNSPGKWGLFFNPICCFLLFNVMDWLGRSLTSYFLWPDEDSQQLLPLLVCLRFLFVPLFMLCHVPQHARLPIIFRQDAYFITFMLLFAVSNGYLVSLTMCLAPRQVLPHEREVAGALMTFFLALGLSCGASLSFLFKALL

[2] = target: T2, equilibrative nucleoside transporter (es and ei) in murine myeloma SP2/0-Ag14 cells (Mus musculus, UniProt Q9JIM1)
T2 sequence (Q9JIM1 1-460): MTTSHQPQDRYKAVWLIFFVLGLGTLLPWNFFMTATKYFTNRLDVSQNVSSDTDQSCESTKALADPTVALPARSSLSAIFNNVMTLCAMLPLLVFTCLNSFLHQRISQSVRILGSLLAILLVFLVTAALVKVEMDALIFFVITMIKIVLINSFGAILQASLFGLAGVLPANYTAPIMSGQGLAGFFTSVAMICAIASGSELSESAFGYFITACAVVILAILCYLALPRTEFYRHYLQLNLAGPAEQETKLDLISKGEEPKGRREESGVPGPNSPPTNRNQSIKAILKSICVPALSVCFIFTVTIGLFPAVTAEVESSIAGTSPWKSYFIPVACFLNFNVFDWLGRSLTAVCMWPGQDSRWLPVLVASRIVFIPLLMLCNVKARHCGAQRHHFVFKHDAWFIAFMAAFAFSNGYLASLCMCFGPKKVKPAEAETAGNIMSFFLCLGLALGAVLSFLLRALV

[3] = test system: equilibrative nucleoside transporter (es and ei) in murine myeloma SP2/0-Ag14 cells; conditions: SP2/0-Ag14 cells; component with IC50 0.15 mM

## CCN1C(=O)C=CC1=O [NEM, N-Ethylmaleimide]
[1]
  NEM concentration gradually abolishing the remaining 30–40% of transport activity: above 3 mM
[2]
  IC50: 150 µM
[3]
  share of transport activity inhibited by NEM (sensitive component): 60–70%
